# Results as given in PubChem BioAssay AID540267 (National Center for Advancing Translational Sciences (NCATS), 2011).
# Values joined by “and” are separate entries in the source; they are usually repeats but may differ in a detail not shown here. Equal values may be shown once. The whole screen tested about 340,000 compounds, of which about 530 (0.16%) were called active. This list was built around the results that the source calls inconclusive (neither active nor inactive); the mix of calls is not that of the screen. No stated cut-off is given here; in the data, active means activity change below about -80%; inconclusive means between about -30% and that limit; inactive means weaker than that.
# Assay: Small Molecules that selectively kill Giardia lamblia: qHTS;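 further: parasites exposed to compound for two days anaerobically before the ATP read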
# Details: Giardia lamblia trophozoite viability; at 7.66 µM; stronger effect = lower value
# Method in brief: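 Media and compound were dispensed first, then trophozoites at 100 cells/well; plates sat 48 hrs at 37 deg C without oxygen before ATP luminescence reagent was added and read after 15-30 min at room temperature.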
# On the % scale 0 is the no-effect control and ±100 the full control effect.
row,SMILES,activity change
1,Cc1ccc(OC(C)C(=O)N(C)Cc2ccccc2)c([N+](=O)[O-])n1 (centres undefined),inconclusive: -33% [inhibitor]
2,Cc1cc(N)n2ncc(-c3cccc(Br)c3)c2n1,inactive: 0.84%
3,CCc1ccc(OCC(=O)N/N=C/c2cc([N+](=O)[O-])ccc2N2CCOCC2)cc1,inconclusive: -31.9% [inhibitor]
4,O=[N+]([O-])c1cccc(-c2nnc(SCc3cccnc3)o2)c1,inconclusive: -33.4% [inhibitor]
5,COc1cc(NC(=S)N2CCN(c3ccccn3)CC2)cc(OC)c1,inconclusive: -35.6% [inhibitor]
6,CCCCn1c(O)c(/C=C/C=C/C=Nc2ccccc2)sc1=S,inactive: 11.7%
7,COc1ccc(C2=Nn3c(nnc3-c3ccccc3F)SC2)cc1OC1CCCC1,inconclusive: -36.5% [inhibitor]
8,CCN(CC(=O)Nc1c(F)cccc1F)C(=O)c1cccc(S(=O)(=O)N2CCCCCC2)c1,inconclusive: -33.8% [inhibitor]
9,COc1cccc(NC(=O)CCN2CCN(c3ccccc3F)CC2)c1,inconclusive: -31.4% [inhibitor]
10,NCCCn1c(C(=O)c2ccc(Cl)cc2)c2ccc([N+](=O)[O-])cc2[n+]1[O-],inconclusive: -48.9% [inhibitor]
11,O=C(Nc1nnc(C2CC2)o1)c1ccc(S(=O)(=O)N2CCc3ccccc3C2)cc1,inactive: 15.7%
12,Cc1noc(C)c1COc1ccc(C(=O)N2CCN(S(=O)(=O)c3ccc(F)cc3)CC2)cc1,inactive: -17.9%
13,Cc1ccc(Nc2cc(C)nc3c(C)ccc([N+](=O)[O-])c23)cc1,inconclusive: -71.6% [inhibitor]
14,CCOC(=O)c1sc2nc(C)nc(SC(C)C(=O)NC3CC3)c2c1C (centres undefined),inconclusive: -36.8% [inhibitor]
15,Cc1ccnc(NC(=O)c2sc3ccccc3c2Cl)c1,active: -80.2%
16,CC1CCN(c2ccc(NC(=O)c3ccc([N+](=O)[O-])o3)cc2)CC1,inconclusive: -77.6% [inhibitor]
17,CC1CCN(S(=O)(=O)c2ccc3c(c2)N(CC(=O)N(C)Cc2ccco2)C(=O)CO3)CC1,inactive: 2.98%
18,COc1ccc(C(=O)c2c3ccccc3[n+]([O-])n2CCCN)cc1,inconclusive: -62.7% [inhibitor] and inconclusive: -57.7% [inhibitor]
19,Cc1ccccc1NCC(=O)N/N=C\c1ccc([N+](=O)[O-])s1,active: -89.1%
20,O=C(NCc1nnnn1-c1ccc(F)cc1)c1ccc([N+](=O)[O-])o1,active: -94.5%
21,COc1ccc2cc(-c3cc(C(=O)OCC(=O)NC4CCS(=O)(=O)C4)c4ccccc4n3)ccc2c1 (centres undefined),active: -87.8%
22,CSc1ncccc1C(=O)OCc1ccccc1Cl,inconclusive: -33.5% [inhibitor]
23,CC(C)C(=O)NC(=S)Nc1ccc(S(=O)(=O)N2CCCC2)cc1,inconclusive: -49.4% [inhibitor]
24,COc1ccc(Br)cc1CN(C)CC(=O)Nc1c(Cl)cccc1Cl,inactive: 3.72%
25,O=C(COC(=O)CCC(=O)c1cccs1)Nc1ccccc1C(F)(F)F,inconclusive: -30.3% [inhibitor]

row,SMILES,activity change
1,CC(C)CN1C(=O)c2ccc(C(=O)Nc3ccccn3)cc2C1=O,inconclusive: -32.6% [inhibitor]
2,CC(C)(C)NC(=O)/C=C/c1ccc(C(F)(F)F)cc1,inconclusive: -31.3% [inhibitor]
3,Cc1cccc(N2C(=O)CC(Sc3nnc(C)s3)C2=O)c1 (centres undefined),inconclusive: -32.1% [inhibitor]
4,COc1cc(C(F)(F)F)c(C(=O)NCc2cccc(Cl)c2)cn1,inconclusive: -31.5% [inhibitor]
5,COc1ccc2nc3c(cc2c1)Cn1c-3nc2ccccc2c1=O,inconclusive: -71.5% [inhibitor]
6,OC(COC(c1ccc(F)cc1)c1ccc(F)cc1)CN1CCCC1 (centres undefined),inactive: 45.4%
7,CCCCNC(=O)/C(=C\c1ccc([N+](=O)[O-])o1)NC(=O)c1ccccc1,active: -101%
8,CCOC(=O)c1ccc2c(c1)nc(-c1ccccn1)n2CC,inconclusive: -35.2% [inhibitor]
9,O=C(Nc1ccccc1Cl)Nn1cnnc1,inconclusive: -30.6% [inhibitor]
10,Fc1ccc(C(c2nnnn2C2CCCCC2)N2CCCC2)cc1 (centres undefined),inactive: -21.8%
11,COc1ccccc1CNS(=O)(=O)c1cc(CN2C(=O)c3cccnc3C2=O)ccc1OC,inactive: 33.4%
12,O=C(c1ccccc1)n1nnc2ccccc21,inactive: -2.93%
13,CCOC(=O)C1=C(C)N=c2s/c(=C/c3cccc([N+](=O)[O-])c3O)c(=O)n2C1c1cc(OC)c(OC)c(OC)c1 (centres undefined),inconclusive: -48.3% [inhibitor]
14,CC1=C(C(=O)Nc2ccccc2)C(c2coc3ccccc3c2=O)C2=C(CCCC2=O)N1 (centres undefined),inactive: -3.5%
15,CC(=O)N1CCC[C@H]1C(=O)O,inactive: 14.5%
16,COc1cccc(CNCc2cccc(Br)c2)c1OC,inconclusive: -45.4% [inhibitor]
17,O=C(NNC(=S)NC(=O)c1ccccc1[N+](=O)[O-])c1ccccc1[N+](=O)[O-],inactive: -4.32%
18,CCn1cc(C(=O)O)c(=O)c2cnc(N3CCN(C(=S)NC(=O)c4ccc(Br)cc4)CC3)nc21,inconclusive: -33.4% [inhibitor]
19,O=C(NNS(=O)(=O)c1ccccc1F)c1cccc(S(=O)(=O)N2CCOCC2)c1,inactive: -13.8%
20,O=C1c2cccc3cc([N+](=O)[O-])cc(c23)C(=O)N1/N=C/c1ccc(O)cc1O,inconclusive: -32.7% [inhibitor]
21,CC1CCN(C(=O)CSc2nnc3c(n2)[nH]c2ccccc23)CC1,inactive: -7.33%
22,Cc1ccc(S(C)(=O)=O)cc1C(=O)OCC(=O)N1CCCC1=O,inconclusive: -33.1% [inhibitor]
23,COc1ccc(NC(=O)CN(C)CC(=O)NCc2ccc(C)cc2)cc1,inconclusive: -30.9% [inhibitor]
24,CS/C(Nc1cc(Cl)ccc1Cl)=C(/C#N)C(=O)c1ccco1,inconclusive: -55.2% [inhibitor]
